Hit rate of the full screen: of about 310,000 compounds, about 14,000 (4.5%) showed an effect of 50% or more. Effects have a minus sign here. This is one part of the list.
Target: human ether-à-go-go-related gene (hERG) potassium channel (human, UniProt Q12809)
Assay: primary screen, population patch clamp on CHO cells stably expressing hERG
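Note: peak tail current of the secondary pulse compared with the same well before compound.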

human ether-à-go-go-related gene (hERG) potassium channel, sequence (Q12809 whole entry, looked up): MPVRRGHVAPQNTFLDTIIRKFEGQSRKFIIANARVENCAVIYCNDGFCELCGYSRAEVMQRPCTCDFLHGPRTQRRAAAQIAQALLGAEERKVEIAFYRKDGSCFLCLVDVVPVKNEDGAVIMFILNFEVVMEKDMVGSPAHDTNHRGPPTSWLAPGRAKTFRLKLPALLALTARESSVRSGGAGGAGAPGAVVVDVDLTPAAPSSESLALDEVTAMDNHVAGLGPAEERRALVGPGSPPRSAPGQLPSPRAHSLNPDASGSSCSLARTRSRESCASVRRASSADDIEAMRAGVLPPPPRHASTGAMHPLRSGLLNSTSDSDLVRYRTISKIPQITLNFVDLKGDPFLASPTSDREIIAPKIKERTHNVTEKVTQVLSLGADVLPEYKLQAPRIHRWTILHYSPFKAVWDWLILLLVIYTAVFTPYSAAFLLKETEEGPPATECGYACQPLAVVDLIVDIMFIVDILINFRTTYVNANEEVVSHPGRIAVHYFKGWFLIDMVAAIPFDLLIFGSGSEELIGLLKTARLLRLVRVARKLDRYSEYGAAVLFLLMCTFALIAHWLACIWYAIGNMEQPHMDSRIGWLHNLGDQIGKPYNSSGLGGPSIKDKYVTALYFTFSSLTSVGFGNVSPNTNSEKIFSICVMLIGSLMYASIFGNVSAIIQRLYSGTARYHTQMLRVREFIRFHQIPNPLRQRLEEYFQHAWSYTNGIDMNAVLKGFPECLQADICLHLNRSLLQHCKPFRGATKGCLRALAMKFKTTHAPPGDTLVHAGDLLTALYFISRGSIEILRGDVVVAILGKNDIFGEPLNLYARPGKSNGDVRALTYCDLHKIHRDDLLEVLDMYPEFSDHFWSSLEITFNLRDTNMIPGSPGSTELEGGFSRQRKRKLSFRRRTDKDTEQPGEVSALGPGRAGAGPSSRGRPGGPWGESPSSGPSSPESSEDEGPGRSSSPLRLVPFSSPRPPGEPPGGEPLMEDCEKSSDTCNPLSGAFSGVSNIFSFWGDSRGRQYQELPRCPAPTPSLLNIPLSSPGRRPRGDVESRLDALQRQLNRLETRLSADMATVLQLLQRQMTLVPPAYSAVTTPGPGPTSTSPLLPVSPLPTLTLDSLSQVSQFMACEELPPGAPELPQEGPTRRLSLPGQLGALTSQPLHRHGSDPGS

SMILES	hERG current change (%, negative = inhibition) at 10uM [%]
COC(=O)CSc1nnc(COc2cccc3ccccc23)o1	13.6
Cc1cccc(N2C(=O)CC(Sc3nnc(C)s3)C2=O)c1 (stereo not shown)	14.4
Cc1cc(N(C)C)c(C#N)c(N2CCCCC2)n1	-4.92
c1ccc(CSc2ccc(-c3ccc4c(c3)OCO4)nn2)cc1	-4
COc1cc(NC(=O)CN2CCN(c3ccccn3)CC2)cc(OC)c1OC	3.76
CSC1=NCCCN1C(=O)c1c(-c2ccccc2Cl)noc1C	-8.19
Cc1ccc(NC(=O)C2CCCN2C(=O)NC2CCCCC2)cc1C (stereo not shown)	5.84
Cc1ccc(SCC(=O)NC2CC3CCC(C2)N3C)cc1 (stereo not shown)	4.2
Cc1c([C@H]2[C@@H](CC#N)C2(C)C)c2ccccc2n1C	-10.4
O=C(CCc1ccccc1)Nc1nc2n(n1)C(c1ccc(Cl)cc1)CC(=O)N2 (stereo not shown)	9.38
Cc1nnc(Nc2ccc(C(=O)NCCO)cc2)c2ccccc12	-0.987
COCCNCCCCOc1c(Cl)cc(C)cc1Br	-41.5
COc1ccc(-c2c[n+]3c(n2-c2ccc(C)cc2)CCCCC3)cc1.[Br-]	-48.2
CCCC(=O)N=c1sc2c(OC)ccc(OC)c2n1C	1.74
COc1ccc(C2CC(=O)Oc3c2c(=O)n(C)c2ccccc32)c(OC)c1OC (stereo not shown)	17.5
O=C(c1ccc[nH]c1=S)N1CCN(S(=O)(=O)c2ccc(Br)cc2Cl)CC1	-3.65
Cc1nc2c(c(=O)c3ccccc3n2C)c(=O)n1-c1ccc(F)cc1	-12.6
COCCNC(=O)C(c1ccc(F)cc1)N(CCOC)C(=O)CCC(=O)Nc1nccs1 (stereo not shown)	0.0239
Cc1cccn2c(=O)c(C(=O)NCCCN3CCCCC3C)c(O)nc12 (stereo not shown)	-2.22
COc1ccc(/C(N)=N/OC(=O)c2cccs2)cc1	15.6
CCN(CC)C(=O)CSc1nnc(COc2ccccc2)n1CC	2.69
CC(=O)c1ccc(NC(=O)C2=CC(c3ccco3)=NS(=O)(=O)N2C)cc1	-7.75
COc1ccc(S(=O)(=O)NCC(c2cccnc2)N2CCN(Cc3ccccc3)CC2)cc1C (stereo not shown)	-79.6
COc1ccc(-n2c(O)c(C(C)=NCc3ccco3)c(=O)[nH]c2=O)cc1	-3.34
COc1ccccc1CNC(=O)/C=C/c1cc2c(cc1Br)OCO2	19.8
